The record followed here is PubChem BioAssay AID485344 (National Center for Advancing Translational Sciences (NCATS), 2010).

Structures are written as SMILES. Hit rate of the full screen: of about 340,000 compounds, about 6,900 (2%) were called active. Cut-off read from the data, not from the text of the source: active = inhibition above about 30%; inactive = below that, where a call was filed. Only a part is listed here, and it is no random draw. Entries without a call were filed so in the source.

UniProt P14416, sequence (P14416 whole entry, looked up): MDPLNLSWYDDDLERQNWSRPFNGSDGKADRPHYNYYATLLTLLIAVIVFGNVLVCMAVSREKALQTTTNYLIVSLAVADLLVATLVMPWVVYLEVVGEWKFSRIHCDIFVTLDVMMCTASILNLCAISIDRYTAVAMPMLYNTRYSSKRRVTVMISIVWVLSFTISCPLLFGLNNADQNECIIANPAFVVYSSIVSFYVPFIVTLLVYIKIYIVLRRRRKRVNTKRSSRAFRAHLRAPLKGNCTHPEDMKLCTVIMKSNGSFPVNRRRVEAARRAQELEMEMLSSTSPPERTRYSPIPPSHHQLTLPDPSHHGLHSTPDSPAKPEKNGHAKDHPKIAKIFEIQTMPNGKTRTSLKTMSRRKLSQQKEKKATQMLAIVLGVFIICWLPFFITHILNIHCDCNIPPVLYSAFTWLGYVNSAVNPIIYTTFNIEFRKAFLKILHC

This test addresses D(2) dopamine receptor (Homo sapiens) (UniProt P14416). The test is described as follows: HTS Assay for Allosteric Antagonists of the Human D2 Dopamine Receptor: Primary Screen for Antagonists. Note: 0% is about no effect. Particulars: HEK293 TREx D2 cells, calcium flux, dopamine EC80; at 10 µM; stronger effect = higher value. The method, boiled down:
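Measurement of antagonist activity uses fluorescent calcium dye in inducible HEK293 T-REx D2 cells: 10 s baseline, compound addition with 180 s read, EC80 dopamine addition with a further 180 s read.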
For orientation: A change in cytosolic calcium serves as a functional read-out for many receptors and channels.
As usually defined, the inhibition is the relative decrease from the control value, in per cent. For the molecule `Cc1ccc(C)c(Cn2c3ccccc3c3cnn(CC(=O)NC4CCCCCC4)c(=O)c32)c1`, the inhibition was 2.98%.
For the molecule `O=S(=O)(c1cccc(Cl)c1)n1c(/C=C/c2ccccc2Cl)nc2ccccc21`, the inhibition was -26%.
As for `Cc1c(Cl)cccc1NC(=O)CSc1nc(=O)[nH]c2c1CCC2`, the inhibition was 1.2%.
As to `Cc1c2cnn(-c3ccccc3)c(=O)c2c(C)n1CCCC(=O)Nc1cccc(F)c1`, the inhibition was -7.45%.
The same measure for `O=c1n(Cc2ccccc2)nc2n1-c1cc(Cl)ccc1OC2`: -12%; for `COc1ccc(-c2cc(OC(=O)c3cccc(Cl)c3)c3c(C)oc(C)c3c(=O)c2)cc1OC`: -2.32%; for `COc1ccc(CN(Cc2ccco2)C(=O)COc2ccccc2Cl)cc1`: -3.84%.
With `COc1ccc(NC(=O)c2cc(S(=O)(=O)N3CCCC(C)C3)cn2C)c(OC)c1` (stereo not drawn), the inhibition is -3.65%.
Consider `COc1ccc(NC(=O)CSc2nc3ccccc3n2CC(=O)N(C)C2CCCCC2)cc1`, for which the inhibition is 7.43%.
The same measure for `Cc1cc(Cl)ccc1NS(=O)(=O)c1c(C(=O)N2CCCCCC2)c(C)n(C)c1C`: -4.88%; for `COc1cc(C2c3c(-c4cc(C)ccc4O)n[nH]c3C(=O)N2Cc2ccco2)cc(OC)c1OC` (stereo not drawn): -8.24%; for `CC(C)Oc1ccc(C(=O)Nc2nnc3n2CCS3)cc1`: -7.13%.
Turning to `COC(=O)CSc1nc2sc3c(c2c(=O)n1-c1ccccc1)C(C)CCC3` (stereo not drawn), the inhibition was -9.35%.
For `O=C(Cn1cc(SCc2ccc(Cl)cc2)c2ccccc21)N1CCOCC1` the value was -12.2%.
`CC(CCc1ccccc1)NCc1ccncc1` (stereo not drawn): the inhibition was active: 63.7%.
For the molecule `CCCc1nn2c(=O)cc(COC(=O)c3cccc(NC(=O)c4ccc(OCC)cc4)c3)nc2s1`, the inhibition is 7.97%.
Turning to `Cn1c(=O)c2c(nc(N3CCOCC3)n2Cc2ccccc2F)n(C)c1=O`, the inhibition was -14.9%.
In the case of `O=C(Nc1ccccc1C(F)(F)F)C1CCN(S(=O)(=O)c2ccccc2)CC1`, the inhibition was 12.8%.
Regarding `O=C(CSc1nc2ncccc2o1)Nc1ccc(Cl)cc1F`, the inhibition came out at 2.3%.
For the molecule `CCOC(=O)c1cc(-c2ccc(F)cc2)n(CCC(=O)Nc2cc(OC)cc(OC)c2)c1C`, the inhibition is -10.5%.
As to `COc1ccccc1N(CC(O)Cn1ccnc1C)S(=O)(=O)c1ccccc1` (stereo not drawn), the inhibition was active: 34.3%.
Turning to `CCC(=O)Oc1c(Sc2ccc(C)cc2)c(C)nn1-c1ccccc1`, the inhibition came to 15.5%.
Take `COCCCn1c(SCC(=O)Nc2ccc(OC)cc2)nc2c(sc3ccccc32)c1=O`: the inhibition worked out at 2.94%.
As for `O=C(CSc1nc(=O)n(CCN2CCOCC2)c2c1CCC2)Nc1ccc(F)cc1F`, the inhibition was -0.262%.
The same measure for `CC(C)CC(=O)Nc1ccc2nc(SCC(=O)N3CCOCC3)sc2c1`: 1.49%; for `COc1ccc(OC)c(NC(=O)c2cc3cccc(OC)c3oc2=O)c1`: 5.33%.
As to `CCCNC(=O)c1ccc(Cn2c(SCC(N)=O)nc3ccccc3c2=O)cc1`, the inhibition was 7.36%.
On to `Cc1ccc(-c2nc3cccc(C)n3c2Nc2ccc3c(c2)OCO3)o1`, for which the inhibition is -26.7%.
